Assay results taken from the supplement of paper PMC4604168 (melanoma cell lines).
The list shows a part of the results. Most values come without repeats; read them as rough.

Experiments:
Assay in all cases: cell count relative to DMSO control; melanoma cells; higher = more viable cells
Conditions in all cases: library dose: standard library concentration; 72 h; first compound 2 µM
G361 = test system: G361
IPC-298 = test system: IPC-298
IST-MEL1 = test system: IST-MEL1
LB2518-MEL = test system: LB2518-MEL
LOXIMVI = test system: LOXIMVI
MEL-HO = test system: MEL-HO
MZ2-MEL = test system: MZ2-MEL
MeWo = test system: MeWo
RPMI7951 = test system: RPMI7951
RVH-421 = test system: RVH-421
SkMel28 = test system: SkMel28
SkMel2 = test system: SkMel2
SkMel30 = test system: SkMel30
SkMel5 = test system: SkMel5
UACC257 = test system: UACC257
UACC62 = test system: UACC62
WM115 = test system: WM115
WM1716 = test system: WM1716
WM1745 = test system: WM1745
WM3526 = test system: WM3526
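Also: cells treated in 1,536-well plates, then fixed and DAPI-stained, with nuclei counted from automated high-throughput microscope images.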

Structure (SMILES) | cell count (G361) [%] | cell count (IPC-298) [%] | cell count (IST-MEL1) [%] | cell count (LB2518-MEL) [%] | cell count (LOXIMVI) [%] | cell count (MEL-HO) [%] | cell count (MZ2-MEL) [%] | cell count (MeWo) [%] | cell count (RPMI7951) [%] | cell count (RVH-421) [%] | cell count (SkMel28) [%] | cell count (SkMel2) [%] | cell count (SkMel30) [%] | cell count (SkMel5) [%] | cell count (UACC257) [%] | cell count (UACC62) [%] | cell count (WM115) [%] | cell count (WM1716) [%] | cell count (WM1745) [%] | cell count (WM3526) [%]
C[C@@H](N)c1ccc(C(=O)Nc2ccnc3[nH]ccc23)cc1 + O=C(Nc1cccc(Cl)c1)Nc1ncc(CCNc2ncnc3ccsc23)s1 [SNS314] (partner dose 0.004 µM) | 75.2 | 90.4 | 54.4 | 110 | 75.7 | 60.5 | 57.6 | 41.2 | 50.2 | 43.3 | 35.8 | 83.6 | 87.4 | 65.1 | 60.1 | 76 | 53.5 | 33 | 49.8 | 81
C[C@@H](N)c1ccc(C(=O)Nc2ccnc3[nH]ccc23)cc1 + Nc1nc(F)nc2c1ncn2[C@@H]1O[C@H](CO)[C@@H](O)[C@@H]1O [fludarabine] (partner dose 1 µM) | 81 | 71 | 65.1 | 116 | 52.9 | 72.7 | 69.2 | 76.8 | 45.4 | 42.3 | 0.758 | 0.493 | 9.17 | 17.7 | 33.3 | 43.7 | 120 | 61.7 | 70 | 26
CCCCCCCCCCCCCCCCCCOP(=O)([O-])OC1CC[N+](C)(C)CC1 [Perifosine] + OCc1c[nH]c2ccccc12 [Indole-3-carbinol] (partner dose 4 µM) | 87.4 | 88.4 | 105 | 91.5 | 174 | 111 | 94.7 | 94.3 | 37.5 | 91.5 | 96.8 | 93.8 | 92.4 | 107 | 104 | 77.2 | 88.8 | 114 | 95 | 93
CCCCCCCCCCCCCCCCCCOP(=O)([O-])OC1CC[N+](C)(C)CC1 [Perifosine] + O=c1[nH]nc(Sc2ncc([N+](=O)[O-])s2)n1-c1ccc2c(c1)OCCO2 [BI78D3] (partner dose 1 µM) | 98.7 | 88.4 | 102 | 98.8 | 110 | 109 | 104 | 108 | 35.4 | 86.4 | 79.8 | 110 | 87.6 | 91.1 | 99.8 | 68.4 | 110 | 107 | 87.2 | 118
C[C@@H](N)c1ccc(C(=O)Nc2ccnc3[nH]ccc23)cc1 + O=C(O)c1ccc2c(c1)nc(Nc1cccc(Cl)c1)c1ccncc12 [CX4945] (partner dose 2 µM) | 71.6 | 66.5 | 61.3 | 119 | 46.7 | 40.5 | 26.2 | 75.3 | 42.4 | 59.7 | 79.5 | 73.8 | 74 | 61 | 65.1 | 63.7 | 87.8 | 43 | 28.3 | 76
C[C@@H](N)c1ccc(C(=O)Nc2ccnc3[nH]ccc23)cc1 + O=C(O)[C@@H]1[O][Sb](=[O])([O][Sb]2(=[O])[O][C@H]([C@H](O)CO)[C@H](O)[C@H](C(=O)O)[O]2)[O][C@H]([C@H](O)CO)[C@@H]1O [stibogluconate] (partner dose 10 µM) | 110 | 113 | 106 | 186 | 124 | 76.2 | 62.4 | 72.1 | 60.1 | 79.9 | 127 | 117 | 85.6 | 53.9 | 70.8 | 105 | 102 | 48.9 | 54.5 | 89.3
Cn1sc(=O)n(Cc2ccccc2)c1=O + Cc1ccc(NC(=O)c2cccc(N(C)C)c2)cc1NC(=O)c1ccc(O)cc1 [ZM336372] (partner dose 10 µM) | 66.7 | 92.2 | 79.6 | 88.6 | 80.9 | 79.4 | 88.8 | 90.5 | 39.6 | 104 | 84 | 87.9 | 84.8 | 68.4 | 97.1 | 72.4 | 88 | 82.7 | 87.9 | 86.4
Cn1sc(=O)n(Cc2ccccc2)c1=O + Cn1nnc2c(C(N)=O)ncn2c1=O [temozolomide] (partner dose 10 µM) | 95.2 | 95.8 | 84 | 96.9 | 88.1 | 108 | 111 | 111 | 62.6 | 77.4 | 40.2 | 109 | 87.4 | 83.6 | 102 | 75 | 79.8 | 50.5 | 80.9 | 95
Cn1sc(=O)n(Cc2ccccc2)c1=O + O=C(Nc1cccc(Cl)c1)Nc1ncc(CCNc2ncnc3ccsc23)s1 [SNS314] (partner dose 0.004 µM) | 71 | 83.6 | 48.3 | 74.5 | 66.6 | 80.6 | 87.9 | 67.9 | 65.2 | 103 | 45.7 | 87.4 | 84.2 | 68.2 | 67 | 106 | 61.3 | 50.3 | 76.8 | 72.6
CCCCCCCCCCCCCCCCCCOP(=O)([O-])OC1CC[N+](C)(C)CC1 [Perifosine] + Cc1nc(Nc2ncc(C(=O)Nc3c(C)cccc3Cl)s2)cc(N2CCN(CCO)CC2)n1 [dasatanib] (partner dose 0.02 µM) | 78.4 | 92.2 | 78.8 | 89 | 34.6 | 73.6 | 61.8 | 100 | 6.77 | 72.5 | 59.4 | 80.5 | 91.8 | 62.7 | 84.2 | 104 | 68.2 | 64.7 | 41 | 90.6
CCCCCCCCCCCCCCCCCCOP(=O)([O-])OC1CC[N+](C)(C)CC1 [Perifosine] + CC(C)C[C@H](NC(=O)[C@H](Cc1ccccc1)NC(=O)c1cnccn1)B(O)O [Bortezomib] (partner dose 0.005 µM) | 1.19 | 7.93 | 14.9 | 3.55 | 44.9 | 38.3 | 6.53 | 14.6 | 1.59 | 6.3 | 17.8 | 33.5 | 20 | 18.5 | 79.3 | 43.6 | 19.4 | 17.6 | 19.5 | 26.1
CCCCCCCCCCCCCCCCCCOP(=O)([O-])OC1CC[N+](C)(C)CC1 [Perifosine] + NC1(c2ccc(-c3nc4ccn5c(=O)[nH]nc5c4cc3-c3ccccc3)cc2)CCC1 [MK2206] (partner dose 2 µM) | 90.5 | 94.8 | 96.9 | 79.6 | 63.2 | 74.8 | 84 | 87.6 | 45.7 | 19.9 | 61.4 | 76.2 | 101 | 81.1 | 89.5 | 75.6 | 65.4 | 79.7 | 74.7 | 90.2
C[C@@H](N)c1ccc(C(=O)Nc2ccnc3[nH]ccc23)cc1 + C[C@@H]1CCN(C(=O)CC#N)C[C@@H]1N(C)c1ncnc2[nH]ccc12 [CP690550] (partner dose 5 µM) | 88.5 | 114 | 92.2 | 132 | 93.7 | 79.1 | 73 | 76.6 | 48.5 | 44.2 | 88.7 | 107 | 104 | 78.4 | 68.4 | 106 | 91 | 63.3 | 52.4 | 97.5
C[C@@H](N)c1ccc(C(=O)Nc2ccnc3[nH]ccc23)cc1 + C=C(c1ccc(C(=O)O)cc1)c1cc2c(cc1C)C(C)(C)CCC2(C)C [Bexarotene] (partner dose 10 µM) | 88.9 | 86.7 | 92 | 100 | 47.6 | 69.5 | 54 | 53.9 | 57.1 | 42.6 | 33.2 | 85.8 | 83.4 | 64.2 | 31.5 | 84.1 | 104 | 13.6 | 56.5 | 73.3
CCCCCCCCCCCCCCCCCCOP(=O)([O-])OC1CC[N+](C)(C)CC1 [Perifosine] + COc1ccc(C2=N[C@@H](c3ccc(Cl)cc3)[C@@H](c3ccc(Cl)cc3)N2C(=O)N2CCNC(=O)C2)c(OC(C)C)c1 [Nutlin-3] (partner dose 0.5 µM) | 74.8 | 98.5 | 105 | 82.8 | 59.5 | 80.6 | 73.1 | 109 | 19.3 | 59.6 | 52.2 | 102 | 86.2 | 79.3 | 96.8 | 66.3 | 89.5 | 66.5 | 81.3 | 92.6
Cn1sc(=O)n(Cc2ccccc2)c1=O + CN(c1ncccc1CNc1nc(Nc2ccc3c(c2)CC(=O)N3)ncc1C(F)(F)F)S(C)(=O)=O [PF562271] (partner dose 0.4 µM) | 95.3 | 101 | 111 | 98.6 | 112 | 84.4 | 108 | 102 | 63 | 77.1 | 87.1 | 86.5 | 93.6 | 79.7 | 104 | 81.2 | 66.4 | 83.9 | 78.7 | 91.3
CCCCCCCCCCCCCCCCCCOP(=O)([O-])OC1CC[N+](C)(C)CC1 [Perifosine] + CS(=O)(=O)c1ccc(C(=O)Nc2ccc(Cl)c(-c3ccccn3)c2)c(Cl)c1 [vismodegib] (partner dose 5 µM) | 95.1 | 86.9 | 91.8 | 93.4 | 94.9 | 82.5 | 112 | 85.7 | 51 | 92.7 | 62 | 78.5 | 82.6 | 119 | 93.3 | 64.3 | 101 | 84.4 | 92.4 | 89.4
CCCCCCCCCCCCCCCCCCOP(=O)([O-])OC1CC[N+](C)(C)CC1 [Perifosine] + Nc1ncn([C@H]2C[C@H](O)[C@@H](CO)O2)c(=O)n1 [decitabine] (partner dose 0.5 µM) | 88.4 | 59.1 | 69.8 | 68.1 | 80.6 | 76.1 | 78.3 | 71.1 | 36.1 | 82.7 | 63.1 | 103 | 73 | 76.7 | 110 | 59.3 | 98.6 | 72.2 | 80.6 | 86.8
CCCCCCCCCCCCCCCCCCOP(=O)([O-])OC1CC[N+](C)(C)CC1 [Perifosine] + O=C(O)c1ccc(-c2c[nH]c3ncc(-c4ccccc4)cc23)cc1C1CCCC1 [GSK650394] (partner dose 0.8 µM) | 75.8 | 92.9 | 93.8 | 82.4 | 54.8 | 59.4 | 122 | 91.2 | 15.8 | 103 | 37.7 | 65.5 | 105 | 74.3 | 87.8 | 84.3 | 87.1 | 85.7 | 72.5 | 79.6
